These are yes or no findings as the source states them, for the method shown. In cells and extracts the contact can be indirect. Some results given as binding are weak or reduced against the parent protein; the word gives no strength. For some assays here: Sequences can lack the tags named with a protein.
Columns and labels:
[1] = target: Myc-tagged wild-type rat nNOS (rat) (UniProt P29476); assay: co-IP; HEK293T cells cotransfected with Myc-nNOS and GFP-PKD1 forms, untreated or treated with 200 nM PDBu for 15 min; RIPA lysates, immunoprecipitation with anti-Myc antibody 4 h at 4°C, immunoblot with anti-GFP and anti-Myc
[2] = target: Myc-tagged wild-type rat nNOS (rat) (UniProt P29476); assay: co-IP; transient transfection of HEK293T cells with PKD2 and nNOS, coimmunoprecipitation analysis (Figure S1)

Amino acid sequences for entries named in this document (tags omitted).
UniProt P29476: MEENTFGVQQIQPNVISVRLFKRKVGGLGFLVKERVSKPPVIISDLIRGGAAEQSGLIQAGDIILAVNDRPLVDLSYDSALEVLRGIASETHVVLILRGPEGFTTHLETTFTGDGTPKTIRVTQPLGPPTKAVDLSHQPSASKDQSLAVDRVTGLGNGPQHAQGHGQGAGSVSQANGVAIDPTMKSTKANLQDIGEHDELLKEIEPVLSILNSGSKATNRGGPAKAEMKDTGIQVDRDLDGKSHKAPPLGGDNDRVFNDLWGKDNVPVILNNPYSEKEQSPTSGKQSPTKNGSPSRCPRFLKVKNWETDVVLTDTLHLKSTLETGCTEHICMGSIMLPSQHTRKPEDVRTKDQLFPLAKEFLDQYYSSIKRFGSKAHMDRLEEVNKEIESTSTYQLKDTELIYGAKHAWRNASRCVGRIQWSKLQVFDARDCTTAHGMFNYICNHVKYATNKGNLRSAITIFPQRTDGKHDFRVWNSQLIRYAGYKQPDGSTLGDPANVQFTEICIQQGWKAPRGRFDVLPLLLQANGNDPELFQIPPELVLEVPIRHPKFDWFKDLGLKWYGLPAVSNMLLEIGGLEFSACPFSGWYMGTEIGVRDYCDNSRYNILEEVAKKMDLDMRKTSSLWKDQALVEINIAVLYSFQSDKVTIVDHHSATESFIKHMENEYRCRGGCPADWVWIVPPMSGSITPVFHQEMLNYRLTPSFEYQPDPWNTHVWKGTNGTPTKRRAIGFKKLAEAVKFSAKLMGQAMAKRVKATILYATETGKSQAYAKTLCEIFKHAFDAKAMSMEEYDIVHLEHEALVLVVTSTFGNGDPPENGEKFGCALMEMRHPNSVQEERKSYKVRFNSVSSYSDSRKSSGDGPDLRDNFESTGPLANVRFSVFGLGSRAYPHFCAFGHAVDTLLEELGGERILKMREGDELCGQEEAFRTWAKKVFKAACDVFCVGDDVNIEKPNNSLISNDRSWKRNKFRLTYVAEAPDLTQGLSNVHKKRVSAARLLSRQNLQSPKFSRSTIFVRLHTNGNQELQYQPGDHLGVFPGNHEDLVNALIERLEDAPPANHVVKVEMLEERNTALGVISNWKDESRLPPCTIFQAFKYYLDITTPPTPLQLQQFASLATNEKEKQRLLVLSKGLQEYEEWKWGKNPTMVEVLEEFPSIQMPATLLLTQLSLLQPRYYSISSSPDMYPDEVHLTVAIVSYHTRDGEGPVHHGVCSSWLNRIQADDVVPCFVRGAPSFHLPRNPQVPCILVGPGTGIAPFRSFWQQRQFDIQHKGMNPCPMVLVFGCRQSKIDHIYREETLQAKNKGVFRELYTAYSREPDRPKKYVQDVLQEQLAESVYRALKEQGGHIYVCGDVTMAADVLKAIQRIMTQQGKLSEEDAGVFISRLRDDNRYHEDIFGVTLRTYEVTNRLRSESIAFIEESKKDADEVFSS

B1: GFP fused to PKD1 wild-type (enzyme, UniProt Q62101 1-918)
chain: MSVPPLLRPPSPLLPAAAAVAAAAAALVPGSGPAPFPAPGAAPAGGISFHLQIGLSREPVLLLQDSSGDYSLAHVREMACSIVDQKFPECGFYGLYDKILLFRHDPASDNILQLVKIASDIQEGDLIEVVLSASATFEDFQIRPHALFVHSYRAPAFCDHCGEMLWGLVRQGLKCEGCGLNYHKRCAFKIPNNCSGVRRRRLSNVSLTGLGTVRTASAEFSTSVPDEPLLSPVSPGFEQKSPSESFIGREKRSNSQSYIGRPIQLDKLLMSKVKVPHTFVIHSYTRPTVCQFCKKLLKGLFRQGLQCKDCRFNCHKRCAPKVPNNCLGEVTINGELLSPGAESDVVMEEGSDDNDSERNSGLMDDMDEAMVQDTEMALAEGQSGGAEMQDPDADQEDSNRTISPSTSNNIPLMRVVQSVKHTKRRSSTVMKEGWMVHYTSKDTLRKRHYWRLDSKCITLFQNDTGSRYYKEIPLSEILCLEPAKPSALTPVGATPHCFEITTANVVYYVGENVVNPSSSPPNNSVLPSGIGPDVARMWEVAIQHALMPVIPKGSSVGSGSNSHKDISVSISVSNCQIQENVDISTVYQIFPDEVLGSGQFGIVYGGKHRKTGRDVAIKIIDKLRFPTKQESQLRNEVAILQNLHHPGVVNLECMFETPERVFVVMEKLHGDMLEMILSSEKGRLPEHITKFLITQILVALRHLHFKNIVHCDLKPENVLLASADPFPQVKLCDFGFARIIGEKSFRRSVVGTPAYLAPEVLRNKGYNRSLDMWSVGVIIYVSLSGTFPFNEDEDIHDQIQNAAFMYPPNPWKEISHEAIDLINNLLQVKMRKRYSVDKTLSHPWLQDYQTWLDLRELECRIGERYITHESDDSRWEQYAGEQGLQYPAHLISLSASHSDSPEAEEREMKALSERVSIL
B1 was tested, and the binding [1] was “binds”.

B2: GFP-PKD1-Ser916Glu (enzyme, UniProt Q62101 1-918)
chain: MSVPPLLRPPSPLLPAAAAVAAAAAALVPGSGPAPFPAPGAAPAGGISFHLQIGLSREPVLLLQDSSGDYSLAHVREMACSIVDQKFPECGFYGLYDKILLFRHDPASDNILQLVKIASDIQEGDLIEVVLSASATFEDFQIRPHALFVHSYRAPAFCDHCGEMLWGLVRQGLKCEGCGLNYHKRCAFKIPNNCSGVRRRRLSNVSLTGLGTVRTASAEFSTSVPDEPLLSPVSPGFEQKSPSESFIGREKRSNSQSYIGRPIQLDKLLMSKVKVPHTFVIHSYTRPTVCQFCKKLLKGLFRQGLQCKDCRFNCHKRCAPKVPNNCLGEVTINGELLSPGAESDVVMEEGSDDNDSERNSGLMDDMDEAMVQDTEMALAEGQSGGAEMQDPDADQEDSNRTISPSTSNNIPLMRVVQSVKHTKRRSSTVMKEGWMVHYTSKDTLRKRHYWRLDSKCITLFQNDTGSRYYKEIPLSEILCLEPAKPSALTPVGATPHCFEITTANVVYYVGENVVNPSSSPPNNSVLPSGIGPDVARMWEVAIQHALMPVIPKGSSVGSGSNSHKDISVSISVSNCQIQENVDISTVYQIFPDEVLGSGQFGIVYGGKHRKTGRDVAIKIIDKLRFPTKQESQLRNEVAILQNLHHPGVVNLECMFETPERVFVVMEKLHGDMLEMILSSEKGRLPEHITKFLITQILVALRHLHFKNIVHCDLKPENVLLASADPFPQVKLCDFGFARIIGEKSFRRSVVGTPAYLAPEVLRNKGYNRSLDMWSVGVIIYVSLSGTFPFNEDEDIHDQIQNAAFMYPPNPWKEISHEAIDLINNLLQVKMRKRYSVDKTLSHPWLQDYQTWLDLRELECRIGERYITHESDDSRWEQYAGEQGLQYPAHLISLSASHSDSPEAEEREMKALSERVEIL
B2 was tested, and the binding [1] was “binds”.

B3: GFP-PKD1-Ser916Ala (enzyme, UniProt Q62101 1-918)
chain: MSVPPLLRPPSPLLPAAAAVAAAAAALVPGSGPAPFPAPGAAPAGGISFHLQIGLSREPVLLLQDSSGDYSLAHVREMACSIVDQKFPECGFYGLYDKILLFRHDPASDNILQLVKIASDIQEGDLIEVVLSASATFEDFQIRPHALFVHSYRAPAFCDHCGEMLWGLVRQGLKCEGCGLNYHKRCAFKIPNNCSGVRRRRLSNVSLTGLGTVRTASAEFSTSVPDEPLLSPVSPGFEQKSPSESFIGREKRSNSQSYIGRPIQLDKLLMSKVKVPHTFVIHSYTRPTVCQFCKKLLKGLFRQGLQCKDCRFNCHKRCAPKVPNNCLGEVTINGELLSPGAESDVVMEEGSDDNDSERNSGLMDDMDEAMVQDTEMALAEGQSGGAEMQDPDADQEDSNRTISPSTSNNIPLMRVVQSVKHTKRRSSTVMKEGWMVHYTSKDTLRKRHYWRLDSKCITLFQNDTGSRYYKEIPLSEILCLEPAKPSALTPVGATPHCFEITTANVVYYVGENVVNPSSSPPNNSVLPSGIGPDVARMWEVAIQHALMPVIPKGSSVGSGSNSHKDISVSISVSNCQIQENVDISTVYQIFPDEVLGSGQFGIVYGGKHRKTGRDVAIKIIDKLRFPTKQESQLRNEVAILQNLHHPGVVNLECMFETPERVFVVMEKLHGDMLEMILSSEKGRLPEHITKFLITQILVALRHLHFKNIVHCDLKPENVLLASADPFPQVKLCDFGFARIIGEKSFRRSVVGTPAYLAPEVLRNKGYNRSLDMWSVGVIIYVSLSGTFPFNEDEDIHDQIQNAAFMYPPNPWKEISHEAIDLINNLLQVKMRKRYSVDKTLSHPWLQDYQTWLDLRELECRIGERYITHESDDSRWEQYAGEQGLQYPAHLISLSASHSDSPEAEEREMKALSERVAIL
With B3 the binding [1] was “binds”.

B4: GFP-PKD1 lacking its PDZ-ligand (domain or fragment, UniProt Q62101 1-915)
chain: MSVPPLLRPPSPLLPAAAAVAAAAAALVPGSGPAPFPAPGAAPAGGISFHLQIGLSREPVLLLQDSSGDYSLAHVREMACSIVDQKFPECGFYGLYDKILLFRHDPASDNILQLVKIASDIQEGDLIEVVLSASATFEDFQIRPHALFVHSYRAPAFCDHCGEMLWGLVRQGLKCEGCGLNYHKRCAFKIPNNCSGVRRRRLSNVSLTGLGTVRTASAEFSTSVPDEPLLSPVSPGFEQKSPSESFIGREKRSNSQSYIGRPIQLDKLLMSKVKVPHTFVIHSYTRPTVCQFCKKLLKGLFRQGLQCKDCRFNCHKRCAPKVPNNCLGEVTINGELLSPGAESDVVMEEGSDDNDSERNSGLMDDMDEAMVQDTEMALAEGQSGGAEMQDPDADQEDSNRTISPSTSNNIPLMRVVQSVKHTKRRSSTVMKEGWMVHYTSKDTLRKRHYWRLDSKCITLFQNDTGSRYYKEIPLSEILCLEPAKPSALTPVGATPHCFEITTANVVYYVGENVVNPSSSPPNNSVLPSGIGPDVARMWEVAIQHALMPVIPKGSSVGSGSNSHKDISVSISVSNCQIQENVDISTVYQIFPDEVLGSGQFGIVYGGKHRKTGRDVAIKIIDKLRFPTKQESQLRNEVAILQNLHHPGVVNLECMFETPERVFVVMEKLHGDMLEMILSSEKGRLPEHITKFLITQILVALRHLHFKNIVHCDLKPENVLLASADPFPQVKLCDFGFARIIGEKSFRRSVVGTPAYLAPEVLRNKGYNRSLDMWSVGVIIYVSLSGTFPFNEDEDIHDQIQNAAFMYPPNPWKEISHEAIDLINNLLQVKMRKRYSVDKTLSHPWLQDYQTWLDLRELECRIGERYITHESDDSRWEQYAGEQGLQYPAHLISLSASHSDSPEAEEREMKALSERV
B4 was tested, and the binding [1] was “binds”.

B5: full-length PKD2 (enzyme, UniProt Q9BZL6 1-878)
chain: MATAPSYPAGLPGSPGPGSPPPPGGLELQSPPPLLPQIPAPGSGVSFHIQIGLTREFVLLPAASELAHVKQLACSIVDQKFPECGFYGLYDKILLFKHDPTSANLLQLVRSSGDIQEGDLVEVVLSASATFEDFQIRPHALTVHSYRAPAFCDHCGEMLFGLVRQGLKCDGCGLNYHKRCAFSIPNNCSGARKRRLSSTSLASGHSVRLGTSESLPCTAEELSRSTTELLPRRPPSSSSSSSASSYTGRPIELDKMLLSKVKVPHTFLIHSYTRPTVCQACKKLLKGLFRQGLQCKDCKFNCHKRCATRVPNDCLGEALINGDVPMEEATDFSEADKSALMDESEDSGVIPGSHSENALHASEEEEGEGGKAQSSLGYIPLMRVVQSVRHTTRKSSTTLREGWVVHYSNKDTLRKRHYWRLDCKCITLFQNNTTNRYYKEIPLSEILTVESAQNFSLVPPGTNPHCFEIVTANATYFVGEMPGGTPGGPSGQGAEAARGWETAIRQALMPVILQDAPSAPGHAPHRQASLSISVSNSQIQENVDIATVYQIFPDEVLGSGQFGVVYGGKHRKTGRDVAVKVIDKLRFPTKQESQLRNEVAILQSLRHPGIVNLECMFETPEKVFVVMEKLHGDMLEMILSSEKGRLPERLTKFLITQILVALRHLHFKNIVHCDLKPENVLLASADPFPQVKLCDFGFARIIGEKSFRRSVVGTPAYLAPEVLLNQGYNRSLDMWSVGVIMYVSLSGTFPFNEDEDINDQIQNAAFMYPASPWSHISAGAIDLINNLLQVKMRKRYSVDKSLSHPWLQEYQTWLDLRELEGKMGERYITHESDDARWEQFAAEHPLPGSGLPTDRDLGGACPPQDHDMQGLAERISVL
With B5 the binding [2] was “binds weakly”.
